Test results as given in PubChem BioAssay AID1460 (National Center for Advancing Translational Sciences (NCATS), 2008).
The whole screen tested about 270,000 compounds, of which about 5,800 (2.1%) were called active. The inconclusive results got no clear call from the source; some entries with a clear call stand among them for comparison. Calls follow the shape of the dose curve; as a rule, active = well fitted inhibition curve with a large enough effect; inconclusive = small, poorly fitted or top-dose-only effect; inactive = flat fitted curve, though single readings scatter. A potency beside an inconclusive call is a rough fit, not a confirmed value.

target: Microtubule-associated protein tau (Homo sapiens) (UniProt P10636); test: qHTS for Inhibitors of Tau Fibril Formation, Thioflavin T Binding; conditions: recombinant tau K18 P301L (four-repeat tau fragment), heparin-induced fibrillization, ThT fluorescence; series mostly up to 57.4 µM; activity, negative = inhibition: at the top concentration; also: nearly all actives have a fitted effect of over 55% in size
How it was run: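 Aggregation was driven by heparin (20 uM final) acting on recombinant tau […] bearing P301L in 100 mM sodium acetate pH 7; fibrils were detected with Thioflavin T.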
% is scaled to controls: 0 for no effect and ±100 for the full control effect; potency is read from the fitted curve at half-maximal effect; tags tell the direction and shape of the fitted curve.

UniProt P10636, sequence (P10636 whole entry, looked up, the tested form may be a part): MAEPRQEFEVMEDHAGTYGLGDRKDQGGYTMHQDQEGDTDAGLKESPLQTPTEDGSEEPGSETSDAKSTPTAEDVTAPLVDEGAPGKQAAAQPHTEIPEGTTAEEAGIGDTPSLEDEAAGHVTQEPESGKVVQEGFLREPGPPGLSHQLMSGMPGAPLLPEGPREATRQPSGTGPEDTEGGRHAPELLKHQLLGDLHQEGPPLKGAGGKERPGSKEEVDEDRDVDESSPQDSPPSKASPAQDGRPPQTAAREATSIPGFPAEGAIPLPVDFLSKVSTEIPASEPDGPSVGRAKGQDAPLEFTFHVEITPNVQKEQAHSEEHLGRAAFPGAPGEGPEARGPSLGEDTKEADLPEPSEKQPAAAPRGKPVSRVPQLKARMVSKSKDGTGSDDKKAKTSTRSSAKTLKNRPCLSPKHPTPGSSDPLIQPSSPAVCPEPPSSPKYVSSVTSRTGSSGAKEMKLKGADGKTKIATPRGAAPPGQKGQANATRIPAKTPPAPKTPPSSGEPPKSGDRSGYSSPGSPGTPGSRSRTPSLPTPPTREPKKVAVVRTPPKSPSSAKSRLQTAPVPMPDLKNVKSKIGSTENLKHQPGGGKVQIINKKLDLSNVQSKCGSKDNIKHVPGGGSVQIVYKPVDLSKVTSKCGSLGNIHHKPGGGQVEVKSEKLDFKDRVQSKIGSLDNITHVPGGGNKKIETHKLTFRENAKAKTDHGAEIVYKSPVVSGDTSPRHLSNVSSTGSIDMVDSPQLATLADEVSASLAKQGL

Row | SMILES | Potency | activity, negative = inhibition
1 | Cc1ccc(C)n1CCN1CCN(C(=O)CC#N)CC1 | inconclusive: 44.7 µM [inhibitor, single point] | 
2 | COc1ccc(Cn2c(SCc3ccc(C(=O)NC(C)c4ccccc4)cc3)nc3cccnc32)cc1 (configuration not stated) |  | inactive: 2.04%
3 | CC1Cc2ccccc2N1C(=O)CCn1c(=O)sc2ccccc21 (configuration not stated) | inconclusive: 4.47 µM [activator, single point] | 
4 | CCCCCc1cc(=O)oc2c(C(CCN3CCCC(C)C3)c3ccc4c(c3)OCO4)c(OC)cc(OC)c12 (configuration not stated) | inconclusive: 28.2 µM [inhibitor, single point] | 
5 | CN(CCO)c1cc(N2CCCCC2)c2nonc2c1[N+](=O)[O-] | inconclusive: 20 µM [inhibitor, partial curve] | 
6 | CCOc1ccc2nc(/N=C/c3nc(-c4ccc(Br)cc4)oc3O)sc2c1 | inconclusive: 3.55 µM [inhibitor, full curve] | 
7 | CCN(CCNC(=O)CC1Oc2ccccc2NC1=O)c1ccccc1 (configuration not stated) |  | inactive: -13.1%
8 | CCSc1cnc(-c2ccccc2)n1CC |  | inactive: -8.48%
9 | COCCCN(C(=S)Nc1cc(Cl)cc(Cl)c1)C(C)c1ccncc1 (configuration not stated) |  | inactive: -7.5%
10 | Cc1nc(N2CCC(C)CC2)c2oc3ccccc3c2n1 | inconclusive: 20 µM [inhibitor, single point] | 
11 | Cc1ccc(NC(=O)c2ccccc2Br)c(C(=O)c2ccccc2)c1 |  | inactive: -7.97%
12 | O=C(CN1CCOCC1)N/N=C/c1ccc(-c2ccc(Br)cc2)o1 | inconclusive: 39.8 µM [inhibitor, single point] | 
13 | COc1cc(/C=C2\SC(=O)NC2=O)ccc1Oc1ccc([N+](=O)[O-])cc1[N+](=O)[O-] | active: 14.1 µM | 
14 | O=[N+]([O-])c1ccc(NC(=S)NCCc2ccc(Cl)cc2)cc1 | inconclusive: 14.1 µM [inhibitor, partial curve] | 
15 | CCN(CC)S(=O)(=O)c1cc(Br)c(C)cc1OC |  | inactive: 0.434%
16 | CC(=O)c1cccc(NC(=O)Nc2csc3c2CCCC3)c1 | inconclusive: 2 µM [inhibitor, full curve] | 
17 | Cc1cc(NC(=O)CCNS(=O)(=O)c2cccc3nsnc23)ccc1Br | inconclusive: 0.0251 µM [inhibitor, full curve, poor fit] | 
18 | NS(=O)(=O)c1ccc(CCNS(=O)(=O)c2ccccc2)cc1 |  | inactive: 4.93%
19 | C=CCn1c(CC#N)nnc1N1CCOCC1 |  | inactive: -11.3%
20 | Cc1cc(C(=O)N/N=C/c2ccccc2Br)no1 | inconclusive: 14.1 µM [inhibitor, partial curve] | 
21 | CC1(C)c2ssc(=S)c2-c2ccccc2N1C(=O)c1ccco1 | inconclusive: 12.6 µM [inhibitor, partial curve] | 
22 | CC(C)OC(=O)CC(=O)CSc1nc2c(c(-c3cccs3)c1C#N)CCC2 | inconclusive: 20 µM [inhibitor, partial curve] | 
23 | COc1ccc(CNC(=O)c2ccc3nc(-c4ccc(F)cc4)c(-c4ccc(F)cc4)nc3c2)cc1 |  | inactive: 2.18%

Row | SMILES | Potency | activity, negative = inhibition
24 | C/C(CC(=O)N1CCN(C=O)CC1)=N\NC(=O)c1cc2ccccc2cc1O | active: 25.1 µM | 
25 | COC(=O)CSCc1nc2ccccc2[nH]c1=O | active: 31.6 µM | 
26 | Cc1ccc(NC(=O)CSc2nc(O)cc(=O)n2C)cc1 | inconclusive: 25.1 µM [inhibitor, partial curve, poor fit] | 
27 | CCCCCCCc1ccc(C2NC(=S)NC3=C2C(=O)c2ccccc23)cc1 (configuration not stated) |  | inactive: -2.18%
28 | CCOC(=O)c1sc2nc(C)nc(Nc3ccc(OC)c(OC)c3)c2c1C | inconclusive: 2 µM [inhibitor, full curve, poor fit] | 
29 | CC(=O)c1ccc(N2C(=O)C3C(C2=O)C(C(=O)c2ccc(Cl)cc2)N2CCCC32)cc1 (configuration not stated) | inconclusive: 22.4 µM [inhibitor, partial curve] | 
30 | CCCn1nnnc1SCC(=O)Nc1sc(C)c(C)c1C#N | inconclusive: 39.8 µM [inhibitor, single point] | 
31 | COc1ccc(NC(=O)c2c(NC(=O)CCC(=O)O)sc3c2CCCCC3)cc1 | inconclusive: 17.8 µM [inhibitor, partial curve, poor fit] | 
32 | O=C(Nc1ccc(N=Nc2ccccc2)cc1)c1ccc(Cl)cc1Cl | inconclusive: 0.178 µM [inhibitor, full curve, poor fit] | 
33 | CC(=O)N1CC23C=CC(CC2CC12CCCCCC2)O3 (configuration not stated) | inconclusive: 39.8 µM [inhibitor, single point] | 
34 | COc1cc(NC(=O)c2ccc(OC)c([N+](=O)[O-])c2)ccc1NC(=O)c1cccs1 | inconclusive: 1.41 µM [inhibitor, full curve] | 
35 | Cc1cccc(OCC(=O)Nc2nnc(S(=O)(=O)N3CCc4ccccc43)s2)c1 | inconclusive: 1.26 µM [inhibitor, full curve] | 
36 | C=CCC1C=CC(Oc2ccc(OC)cc2)C(CO)O1 (configuration not stated) |  | inactive: -13.8% [at 11.5 µM]
37 | CC(C)C(N)C(=O)O (configuration not stated) |  | inactive: 4.07%
38 | CC(=O)c1c(C)oc2c1cc(NS(=O)(=O)c1ccc(Cl)c(C)c1)c1ccccc12 |  | inactive: 3.78%
39 | CCOC(=O)c1ccc(Oc2cc(C)nc(SC)n2)cc1 | inconclusive: 20 µM [inhibitor, single point] | 
40 | CCOc1ccc(N(Cc2ccccc2)C(=O)c2nc(S(C)(=O)=O)ncc2Cl)cc1 | inconclusive: 5.01 µM [inhibitor, full curve] | 
41 | O=C1[C@H]2[C@H]3[C@H](O)[C@H](O)C/C(=N/OCc4ccccc4)[C@@H]3CC[C@@H]2C(=O)N1Cc1ccccc1 |  | inactive: 0.224% [at 11.5 µM]
42 | COc1cc(NS(C)(=O)=O)ccc1Cc1c2ccccc2nc2ccccc12 | inconclusive: 20 µM [inhibitor, partial curve, poor fit] | 
43 | Cc1cccc(N2CCN(C(=O)CS(=O)(=O)Cc3nc(-c4ccccc4C)oc3C)CC2C)c1 (configuration not stated) | inconclusive: 28.2 µM [inhibitor, single point] | 
44 | COc1cc(NC(=O)CCCOc2cc(=O)n(C)c3ccccc23)cc(OC)c1OC |  | inactive: -10%
45 | C/C(=N/Nc1nc(-c2ccccc2F)nc2ccccc12)c1ccccc1O | active: 10 µM | 
46 | Cc1[nH]c2ccccc2c1C(=O)/C=C/c1ccccc1 | inconclusive: 6.31 µM [inhibitor, partial curve] | 

Row | SMILES | Potency | activity, negative = inhibition
47 | COc1ccc(OC)c(NC(=O)Cn2c(=O)cc(-c3ccccc3)c3c(C)nn(C)c32)c1 | inconclusive: 20 µM [inhibitor, partial curve] | 
48 | O=C(CCCCCn1c(=O)[nH]c2ccccc2c1=O)N1CCN(Cc2ccc3c(c2)OCO3)CC1 | inconclusive: 22.4 µM [inhibitor, partial curve] | 
49 | CCOc1ccccc1/C=N\Nc1cnn(Cc2ccccc2)c(=O)c1Cl | inconclusive: 28.2 µM [inhibitor, partial curve] | 
50 | O=C1C2C3C=CC(C2C(=O)N1C1CCCCC1)C1C(=O)N(C2CCCCC2)C(=O)C31 (configuration not stated) |  | inactive: -3.81%
51 | COc1cc(C(=O)Nc2ccccc2-c2nc(-c3ccc(C)cc3)no2)cc(OC)c1OC | inconclusive: 11.2 µM [inhibitor, partial curve] | 
52 | COc1ccc(NC(=O)c2cc(C)cc(C)c2)cc1[N+](=O)[O-] | inconclusive: 4.47 µM [inhibitor, partial curve] | 
53 | COc1ccccc1NC(=S)NC(=O)c1ccc(Cn2cc(Br)cn2)cc1 |  | inactive: 5.17%
54 | CC(=O)c1c(C(C)=O)c(C)n(-c2nc(-c3ccc(Br)cc3)c(C)s2)c1C | inconclusive: 25.1 µM [inhibitor, partial curve] | 
55 | Cc1cc(N2CCCCC2)nc2ccc(NC(=O)CCC(=O)N3CCN(c4ccccc4)CC3)cc12 | inconclusive: 11.2 µM [inhibitor, partial curve] | 
56 | O=C(NNC(=O)c1ccccc1[N+](=O)[O-])Nc1ccc(Cl)cc1 | inconclusive: 7.08 µM [inhibitor, full curve, poor fit] | 
57 | Cc1ccc(S(=O)(=O)NCC(=O)N/N=C/c2ccc(Cl)cc2)cc1 |  | inactive: 10.2%
58 | CCN(C(=O)c1cn(CC)c(=O)c2cc(OC)c(OC)cc12)c1ccccc1F |  | inactive: -2.76%
59 | CCc1ccccc1NC(=O)c1noc2c1CC(C(C)(C)C)CC2 (configuration not stated) |  | inactive: -9.91%
60 | C/C1=C2N=C(/C=C3N=C(/C(C)=C4\[N-]C(C)(C5N=C1C(C)(CCC(=O)NCC(C)OP(=O)([O-])O[C@H]1C(O)C(n6cnc7cc(C)c(C)cc76)O[C@@H]1CO)C5CC(N)=O)C(C)(CC(N)=O)C4CCC(N)=O)C(C)(CC(N)=O)C\3CCC(N)=O)C(C)(C)C/2CCC(N)=O.[CH2-]C1OC(n2cnc3c(N)ncnc32)C(O)C1O.[Co] (some centres not stated) | active: 10 µM | 
61 | NNc1nc2sc3c(c2c(=O)n1C1CCCCC1)CCN(Cc1ccccc1)C3 | inconclusive: 39.8 µM [inhibitor, single point] | 
62 | Cc1ccc(C(=O)/C=C\Nc2ccc(C)c(C)c2)cc1 | inconclusive: 25.1 µM [inhibitor, single point] | 
63 | O=C(CSc1nc2ccccc2[nH]1)N/N=C/C=C/c1ccccc1[N+](=O)[O-] | inconclusive: 22.4 µM [inhibitor, single point] | 
64 | COc1cccc(N2CCN(C(=O)c3nn(C)c4c3CSc3ccc(C)cc3-4)CC2)c1 | inconclusive: 10 µM [inhibitor, partial curve] | 
65 | CCN1CCN(c2cc(C)c3cc(NC(=O)c4ccncc4)ccc3n2)CC1 | inconclusive: 20 µM [inhibitor, partial curve] | 
66 | COC(=O)c1sccc1NC(=O)COc1cccc(C)c1 | inconclusive: 25.1 µM [inhibitor, single point] | 
67 | CC1CCN(c2nc3ccc(C(=O)N4CCN(c5ccccc5)CC4)cc3s2)CC1 | inconclusive: 8.91 µM [inhibitor, partial curve] | 
